The structures appear in SMILES notation. In all, about 110,000 compounds were measured (“z-score”: median about -0.1, highest 2% from about 2 on). This is one part of the list.

The target of this assay is Metabotropic glutamate receptor 8 (Rattus norvegicus) (UniProt P70579). Put plainly: rat mGluR8 modulators via GIRK flux, primary screen, cell-based, thallium flux, HTS (AID 488969). The conditions noted are these: HEK293 rat mGluR8, GIRK (G protein-gated inwardly rectifying potassium channel) thallium flux, FluoZin2; at 10 µM; stronger effect = higher value.
Sequence of UniProt P70579 (P70579 whole entry, looked up): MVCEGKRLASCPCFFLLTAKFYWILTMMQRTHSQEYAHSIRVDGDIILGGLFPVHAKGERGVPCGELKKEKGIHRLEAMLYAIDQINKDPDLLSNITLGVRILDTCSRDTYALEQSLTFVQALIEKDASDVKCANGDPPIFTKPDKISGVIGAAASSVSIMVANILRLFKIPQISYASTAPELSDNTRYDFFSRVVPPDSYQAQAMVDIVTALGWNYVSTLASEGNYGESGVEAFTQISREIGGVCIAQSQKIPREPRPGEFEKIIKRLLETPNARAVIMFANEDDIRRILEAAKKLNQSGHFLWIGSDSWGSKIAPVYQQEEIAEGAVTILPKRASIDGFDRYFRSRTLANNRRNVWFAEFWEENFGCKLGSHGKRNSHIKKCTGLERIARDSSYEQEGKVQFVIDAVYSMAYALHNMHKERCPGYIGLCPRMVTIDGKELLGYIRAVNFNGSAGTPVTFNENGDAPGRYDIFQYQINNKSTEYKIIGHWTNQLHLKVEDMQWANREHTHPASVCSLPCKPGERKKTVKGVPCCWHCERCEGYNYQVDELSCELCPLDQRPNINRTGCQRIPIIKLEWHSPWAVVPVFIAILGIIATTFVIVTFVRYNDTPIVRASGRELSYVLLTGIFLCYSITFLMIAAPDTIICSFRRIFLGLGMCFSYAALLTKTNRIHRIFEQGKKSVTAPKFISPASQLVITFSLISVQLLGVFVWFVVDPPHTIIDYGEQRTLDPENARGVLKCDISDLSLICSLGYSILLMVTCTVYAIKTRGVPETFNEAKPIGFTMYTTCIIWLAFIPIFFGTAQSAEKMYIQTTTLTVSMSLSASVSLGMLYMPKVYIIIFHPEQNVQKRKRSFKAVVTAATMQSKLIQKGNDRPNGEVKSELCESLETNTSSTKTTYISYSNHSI
`O=C(Nc1ccccc1OC(=O)N1CCOCC1)N1CCOCC1` registered a z-score of -0.295. The value for `CCNc1ccc(P(=S)(N(C)C)N(C)C)cc1` was -0.436; that for `CCN(CC)CCCOC(=O)C(OC(C)C)(c1ccccc1)c1ccccc1` was 1.71. With `COc1ccc(/C=C2\C(=O)NC(=O)N(CCC3=CCCCC3)C2=O)c(OC)c1` the figure was -0.377. The value for `COc1ccc(OC(=O)N(C)C)c(CN(C)C)c1` was -0.00221; that for `C=CCn1c(O)c(C(CC)=NCCCO)c(=O)[nH]c1=O` was 0.978; that for `CCN(CC)CCOC(=O)c1cc2cc(COC)ccc2o1` was 0.771.

For the compound `COc1ccc(CN2CC3CC(C2)c2cccc(=O)n2C3)cc1OC` (stereo not drawn), the z-score is 1.04. The value for `CCOc1ccccc1N1C(=O)NC(=O)C(CCc2ccncc2)(CCc2ccncc2)C1=O` was 0.0697; that for `COc1cccc(Oc2c(C)oc3cc(OC(=O)N(C)C)ccc3c2=O)c1` was -0.3; that for `COC(=O)C(O)(c1ccc(N(C)C(=O)OC(C)C)cc1)C(F)(F)F` (stereo not drawn) was 0.305. Consider `c1ccc(CN2CCN(Cc3ccc4c(c3)OCCO4)CC2)cc1`, for which the z-score was -0.577. The compound `COc1ccc(CCn2c(O)c(C=NCCN3CCCCC3)c(=O)[nH]c2=O)cc1OC` displayed a z-score of -0.303. With `CCC12CN3CCN(CC(C3)C1O)C2` (stereo not drawn) the figure was -0.345; with `CCOC(=O)C(O)(c1ccc(N(CC)C(=O)COc2ccccc2)cc1)C(F)(F)F` (stereo not drawn), -0.213. `COc1ccc(C(=O)N2CCOCC2)cc1S(=O)(=O)N1CCC(C)CC1`: the z-score stood at 0.244. With `CNC(=O)N(C)c1nnc(C(C)(C)C)s1` the figure was 0.546.

Consider `CC(C)COc1ccc(C2(C#N)CC[N+](C)(C)CC2)cc1`, for which the z-score was 0.581. The value for `O=C(c1ccccc1F)c1cn(CC(=O)N2CCCC2)c2ccccc12` was -0.289. `Cc1cc(C)nc(/N=C(\N)c2c(O)[nH]c(=O)[nH]c2=O)n1` came in with a z-score of -0.192. With `CN(C)C1(CNC(=O)c2ccc(Cl)c(S(=O)(=O)NCc3ccco3)c2)CCCCC1` the figure was 0.144; with `CCc1c(C)nc(N)nc1N1N=C1SCC#N`, 8.12e-05. With `NC(=O)Nc1cccc(C(F)(F)F)c1` the figure was -0.308. As for `O=C1CC(N2CCC(n3c(=O)[nH]c4ccccc43)CC2)C(=O)N1Cc1ccccc1` (stereo not drawn), the z-score was -0.57.

On to `c1ccc(C2N3CCCN23)cc1` (stereo not drawn), for which the z-score amounted to 0.201. With `CC(C)C/C(=N/O)c1c[nH]c2ccccc12` the figure was -0.0354; with `Oc1ccc(C2NCc3ccccc3-n3cccc32)cc1Cl` (stereo not drawn), 1.68; with `Cc1ccc2c(c1)C1CN(C)CCC1N2S(=O)(=O)c1ccccc1` (stereo not drawn), -1.68. With `O=C(N/N=C1/CN2CCC1CC2)c1cccc(O)c1` the figure was -0.00337. The value for `COCc1c(CN)cnc(C)c1N` was -0.0285; that for `O=C(CN1CC=C(c2ccccc2)CC1)NC(=O)NCc1ccco1` was -0.0787; that for `O=P(C(c1ccc2c(c1)OCO2)N1CCOCC1)(N1CCOCC1)N1CCOCC1` (stereo not drawn) was -0.49.

Compound `CCCCn1c(O)c(C(C)=NCCN2CCOCC2)c(=O)[nH]c1=O` showed a z-score of 0.119. The value for `CCOC(=O)C(O)(c1ccc(NC(=S)NC(=O)c2ccc(Cl)cc2Cl)c(C)c1)C(F)(F)F` (stereo not drawn) was 1.21; that for `CN(C)CCN=Cc1c(O)n(Cc2ccco2)c(=O)[nH]c1=O` was 0.184. With `CNC(=S)NC1CC2CCCC(C1)N2CC(C)C` (stereo not drawn) the figure was -0.0397; with `Clc1ccccc1CNC1CN2CCC1CC2` (stereo not drawn), 0.156. Turning to `CCC(C)N=Cc1c(O)n(-c2ccccc2)c(=O)[nH]c1=O` (stereo not drawn), the z-score was -0.117. The value for `COc1cc(C(=O)Nc2ccc(Br)cc2C(=O)c2ccccc2Cl)cc(OC)c1OC` was -0.615. The value for `CN(C)C(=O)Oc1ccc2ccccc2c1Cl` was -0.252; that for `CCN(CC)C(=O)c1ccc(NC(=O)c2cc(-n3cnnc3)ccc2Cl)cc1` was 0.701; that for `CCC(C)n1c(O)c(/C=N/Nc2ccccc2)c(=O)[nH]c1=S` (stereo not drawn) was -0.315. With `O=C1CN(C(=O)CN2CCCCC2)C(c2ccccc2)c2cc(Br)ccc2N1` (stereo not drawn) the figure was -0.45; with `O=P(Nc1ccccc1Cl)(c1ccccc1)c1nc2c(s1)CCCC2` (stereo not drawn), 0.115. The compound `Cn1c(O)c(C=NCCCC(=O)O)c(=O)n(C)c1=O` registered a z-score of -1.02.

`COc1ccc(/C=C2\C(=N\O)C3CCN2CC3)cc1` had a z-score of -0.214. The value for `C=CCN1C(=O)c2ccccc2Sc2ccc(C(=O)N3CCC4(CC3)OCCO4)cc21` was -0.666. The value for `CC(=O)N1CC(=O)Nc2ccc(Cl)cc2C1c1ccc(F)cc1` (stereo not drawn) was -0.284; that for `O=C1NC(=O)N(c2ccc(F)cc2)C(=O)/C1=C/c1ccc2c(c1)CCCN2Cc1ccccc1` was -0.195; that for `CCC(C)C1(CC)C(=O)NC(=O)N=C1N` (stereo not drawn) was -0.0437. `Cc1nn(C2CCOC(C)(C)C2)c2c1C(c1ccc3c(c1)OCO3)SCC(=O)N2` (stereo not drawn): the z-score is -0.591. The value for `CC(=NCCN1CCOCC1)c1c(O)n(-c2ccccc2C)c(=O)[nH]c1=O` was 0.506; that for `COC(=O)CSC1=NP(=S)(SCC(=O)OC)N2CCCC2=C1C#N` (stereo not drawn) was 0.603; that for `CN1CCN(c2ccc(C(N)=O)cc2N)CC1` was -0.803. With `COC(=O)CN1C(=O)C2(C(C(=O)OC)=C(N)Oc3ccccc32)C2=C1CC(C)(C)CC2=O` (stereo not drawn) the figure was 0.262; with `CCCCc1nc(N2CCNCC2)c(C#N)c2c1CSC(C)(C)C2`, 2.01; with `CC(C)Sc1nnc([C@@H](N)Cc2c[nH]c3ccccc23)o1`, 0.315.

On to `COc1ccccc1CN1CCCCC1c1cccnc1` (stereo not drawn), for which the z-score is -0.195.

The values above are taken from PubChem BioAssay AID488969 (Vanderbilt High Throughput Screening Facility, 2010).
